“And” between values parts separate entries of the source, which are not always exact repeats. Equal values may be shown once. The campaign covered roughly 240,000 compounds. About 20 (0.008%) were called active. The shares of active, inactive and inconclusive entries below differ from those in the screen. Calls come from the whole dose curve; as a rule, active = well fitted inhibition curve with a large enough effect; inconclusive = small, poorly fitted or top-dose-only effect, or effect the other way; inactive = flat fitted curve, though single readings scatter. Where the call is inconclusive, the potency comes from a doubtful curve fit. Peptide text beside a SMILES is read from it.
Molecular target: Alpha-galactosidase A (Homo sapiens) (UniProt P06280)
Chain of UniProt P06280 (P06280 whole entry, looked up): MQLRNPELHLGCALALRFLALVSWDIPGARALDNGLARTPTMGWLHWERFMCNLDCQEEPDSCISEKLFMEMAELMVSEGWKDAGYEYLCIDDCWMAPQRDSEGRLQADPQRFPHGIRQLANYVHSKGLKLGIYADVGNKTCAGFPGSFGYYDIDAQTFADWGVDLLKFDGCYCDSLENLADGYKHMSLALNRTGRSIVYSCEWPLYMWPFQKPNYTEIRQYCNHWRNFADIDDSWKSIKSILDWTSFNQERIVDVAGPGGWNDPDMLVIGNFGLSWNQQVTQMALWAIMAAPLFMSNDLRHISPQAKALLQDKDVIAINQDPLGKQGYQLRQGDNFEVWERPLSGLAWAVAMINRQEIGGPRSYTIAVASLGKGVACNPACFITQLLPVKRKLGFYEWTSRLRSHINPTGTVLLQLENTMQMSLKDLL
Test: qHTS Assay for Inhibitors and Activators of Human alpha-Galactosidase From Spleen Homogenate
Details: 4MU-alpha-Gal fluorescence, 40 min; series mostly up to 80 µM
Procedure, shortened: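 qHTS titration in buffer at pH 5.0. Alpha-galactosidase activity in spleen homogenate was measured via 4-methylumbelliferone release from 1 mM fluorogenic substrate after 40 min at 37C and a pH 10 stop. AC50 came from Hill fits of control-normalized data.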
Potency is the fitted concentration of half-maximal effect; tags give direction and shape of the fitted curve.

SMILES	Potency
COc1ccc(OC)c(-c2cc(C(=O)Nc3cccc(Cl)c3)no2)c1	inconclusive: 11.2 µM [activator, single point]
N#Cc1c(-c2ccc(F)cc2)c2c([nH]c1=O)-c1ccccc1OC2	inconclusive: 35.5 µM [activator, single point]
CCO[C@@H]1OC(C(=O)N2CCN(C)CC2)=C[C@H](C(C)(C)C)[C@H]1CCCO	inactive
O=C(Nc1ccc(Oc2cccnc2)cc1)c1ccccc1Cl	inactive
C=CCNC(=O)CSc1ncc2c(n1)-c1c(csc1SC)CC2	inconclusive: 50.1 µM [activator, single point]
CN(C)S(=O)(=O)c1cccc(-c2cn3cccnc3n2)c1	inconclusive: 35.5 µM [activator, partial curve]
COc1c(C)oc2cc(O)ccc2c1=O	inconclusive: 35.5 µM [activator, single point]
COc1ccc2nc(N3CCOCC3)cc(C)c2c1	inconclusive: 35.5 µM [activator, single point]
CCCCCn1c(=NC(C)=O)c(C#N)cc2c(=O)n3ccccc3nc21	inconclusive: 50.1 µM [activator, single point]
O=C1CC(N2CCN(c3cccc(C(F)(F)F)c3)CC2)C(=O)N1c1ccc(F)cc1 (configuration not stated)	inconclusive: 20 µM [activator, partial curve]
CCn1c(=N)c(C(=O)NC)cc2c(=O)n3cccc(C)c3nc21	inconclusive: 31.6 µM [activator, partial curve]
CCOc1ccccc1C1C2C(=O)N(c3ccccc3)C(=O)C2ON1c1ccccc1 (configuration not stated)	inactive
Cn1c(=O)c(-c2ccccc2)nc2cnc(N3CCOCC3)nc21	inconclusive: 22.4 µM [activator, single point]
O=C1C2C3C=CC(C2C(=O)N1c1cccc(O)c1)C1C2C(=O)N(c4cccc(O)c4)C(=O)C2C31 (configuration not stated)	inactive
CS(=O)(=O)N1CCC2(CCN(c3ccccc3)CC2)CC1	inactive
CCN(CC)CCn1c(N)c(S(=O)(=O)c2ccccc2)c2nc3ccccc3nc21	inconclusive: 35.5 µM [activator, partial curve]
CC(C)(N)C(=O)N[C@@H](Cc1cnc[nH]1)C(=O)N[C@H](Cc1ccc2ccccc2c1)C(=O)N[C@H](Cc1ccccc1)C(=O)N[C@@H](CCCCN)C(N)=O (HELM PEPTIDE1{[Aib].H.[O=C([C@@H](Cc1ccc2ccccc2c1)N[*:1])[*:2]].[dF].K.[am]}$$$$V2.0)	inconclusive: 0.794 µM [inhibitor, full curve, poor fit]
CN(C)c1oc(-c2ccccc2Cl)nc1P(=O)(c1ccccc1)c1ccccc1	inactive
CCOC(=O)c1sc2cccc(F)c2c1N	inconclusive: 39.8 µM [activator, single point]
CCNc1ncc2ncc(=O)n(C)c2n1	inconclusive: 35.5 µM [activator, partial curve]
COC(=O)c1ccccc1NC(=O)c1nc2nc(C)cc(C(F)F)n2n1	inconclusive: 50.1 µM [inhibitor, single point]
Cc1cc(=O)oc2c(CN(C)Cc3ccccc3)c(O)ccc12	inconclusive: 17.8 µM [activator, partial curve]
COc1ccc(C(=O)C[n+]2cc(-c3ccc(OC)cc3)n3c2CCCC3)cc1	inactive

SMILES	Potency
CCCCCn1c(=O)[nH]c2cc(C(=O)NCCCN(CC)CC)ccc2c1=O	inconclusive: 28.2 µM [activator, single point]
COC(=O)C1=CN(Cc2cccs2)C=C(C(=O)OC)C1c1cccc(O)c1	inconclusive: 31.6 µM [activator, partial curve]
Cc1ccc(-c2nnc(SCC(=O)Nc3ccc(S(=O)(=O)N4CCCCCC4)cc3)o2)cc1	inconclusive: 28.2 µM [inhibitor, single point]
COC(=O)c1ccccc1NCCO	inconclusive: 35.5 µM [activator, single point]
O=c1c(O[C@@H]2O[C@H](CO)[C@H](O)[C@H](O)[C@H]2O)c(-c2ccc(O)c(O)c2)oc2cc(O)cc(O)c12	inconclusive: 35.5 µM [inhibitor, single point]
O=C(Nc1cccnc1)Nc1ccc(Br)cc1Cl	inactive
O=C(Nc1cccc(-c2cn3cccnc3n2)c1)c1cccs1	inconclusive: 39.8 µM [activator, partial curve]
CCOc1ccccc1N1CCN(C(=O)CCCN2C(=O)c3cccc4cccc(c34)C2=O)CC1	inactive
COCCN1C=C(C(=O)OC)C(c2ccccc2Cl)C(C(=O)OC)=C1	inconclusive: 31.6 µM [activator, partial curve]
Cc1c(C(=O)NCc2ccc3c(c2)OCO3)sc2nc(-c3ccccc3)cn12	inactive
O=C(O)c1cc(-c2ccc(Cl)s2)nc2ccccc12	inconclusive: 35.5 µM [activator, partial curve]
COc1ccc(Cn2c(N)c(C#N)c3nc4ccccc4nc32)cc1OC	inconclusive: 35.5 µM [activator, partial curve]
COc1cc(OC)cc(-c2nnc3n2N=C(c2ccc(OC)c(OC)c2)CS3)c1	inactive
Nc1c2ccccc2nc2ccccc12	inconclusive: 39.8 µM [activator, partial curve] and inconclusive: 28.2 µM [activator, partial curve] and inconclusive: 44.7 µM [activator, single point]
COc1ccc(-c2cc(-c3ccco3)[nH]c(=O)c2C#N)cc1OC	inconclusive: 50.1 µM [activator, single point]
CN(C)C(=O)c1ccc(-c2nc(NCc3ccccc3)c3ccccc3n2)cc1	inactive
Cc1cc(C(=O)OCC(=O)c2ccc(Cl)c([N+](=O)[O-])c2)c2cccc(C)c2n1	inconclusive: 35.5 µM [inhibitor, single point]
Cc1ccc2[nH]c(=O)c(CN(Cc3ccc4c(c3)OCO4)Cc3nnnn3C3CCCC3)cc2c1	inactive
Cc1cc(NCCO)nc(N2CCOCC2)n1	inconclusive: 7.08 µM [activator, single point]
N#CC1=C(O)C(c2ccccc2)n2c1nc(=O)c1ccccc12 (configuration not stated)	inconclusive: 11.2 µM [activator, single point]
Cc1cc(=O)oc2cc(O[C@@H]3O[C@H](C(=O)O)[C@@H](O)[C@H](O)[C@H]3O)ccc12	inconclusive: 44.7 µM [activator, partial curve]
CC1=CC2=NC(=O)/C(=C\c3ccc(-c4cccc(Cl)c4)o3)C(=N)N2O1	inactive
CCOC(=O)COc1nc(C)cc(C(F)(F)F)c1C#N	inconclusive: 35.5 µM [activator, partial curve]

SMILES	Potency
Oc1ccc(Br)cc1-c1cc(-c2ccccc2)n[nH]1	inconclusive: 50.1 µM [inhibitor, single point]
CC(=O)c1ccc(Oc2ncnc3sccc23)c(CN2CCOCC2)c1	inactive
CC(C)n1c(/C=C\[C@@H](O)C[C@@H](O)CC(=O)O)c(-c2ccc(F)cc2)c2ccccc21	inactive
Cc1c(Cc2ccccc2)c(=O)oc2c(CN(C)C)c(O)c(Cl)cc12	inconclusive: 35.5 µM [activator, partial curve]
O=C(NC1CCCCC1)C(c1cc2c(cc1[N+](=O)[O-])OCO2)N1CCCCC1 (configuration not stated)	inactive
CCC(=O)Nn1cnc2c(c1=O)C1(CCCCC1)Cc1ccccc1-2	inactive
O=C1c2ccccc2C(=O)N1CCC(c1ccc(F)cc1)c1ccco1 (configuration not stated)	inactive
Cc1ccc2nc3c(cc(C#N)c(=O)n3CCN3CCOCC3)c(=O)n2c1	inconclusive: 28.2 µM [activator, partial curve]
CN(C)c1ccc(-c2cc(-n3ccnc3)ncn2)cc1	inconclusive: 39.8 µM [activator, partial curve]
COc1ccccc1NC(=O)CSc1nc2c(sc3ccccc32)c(=O)n1CCN(C)C	inconclusive: 25.1 µM [activator, partial curve]
CCn1c(=N)c(C(=O)OC)cc2c(=O)n3ccccc3nc21	inconclusive: 7.08 µM [activator, partial curve]
CCc1cc2c(=O)c(Oc3ccccc3F)c(C)oc2c(CN(C)C)c1O	inconclusive: 39.8 µM [activator, partial curve]
CCC(C(=O)NC1CCCCC1)n1c(SCc2ccccc2F)nc2ccncc21 (configuration not stated)	inactive
COc1ccc(Nc2nc3ccccc3nc2NS(=O)(=O)c2ccc(NC(C)=O)cc2)cc1	inactive
O=C(CSc1nn(-c2ccccc2)c(=S)s1)Nc1ncccn1	inconclusive: 50.1 µM [activator, single point]
O=C(O)c1cc(-c2cccs2)nc2cc3c(cc12)OCCO3	inconclusive: 35.5 µM [activator, partial curve]
CCCCCCNC(=O)Nc1ccc(S(=O)(=O)Nc2ccc(CCNC[C@H](O)COc3ccc(O)cc3)cc2)cc1	inactive
CC(C)(C)OC(=O)NC(=NCCCc1cn(CC(=O)N2CCN(C(=O)OC(C)(C)C)CC2)nn1)NC(=O)OC(C)(C)C	inconclusive: 25.1 µM [inhibitor, partial curve, poor fit]
O=C(NC1CC1)c1ccc(CSCc2cccc(F)c2)o1	inactive
CC1(C)C=C(c2ccc(C(=O)O)s2)CC(C)(C)N1	inconclusive: 50.1 µM [activator, single point]
CN1C(=O)C(Cc2c[nH]c3ccccc23)NC1=S (configuration not stated)	inconclusive: 0.112 µM [activator, full curve, poor fit]
